# Test results as given in paper PMC8506653 (Clinical cancer research : an official journal of the …, 2021).
# Like-named read-outs stand apart in the source and are kept apart here.
# Legend:
# [1] = test system: adults with R/R AML; assay type: in vivo
# [2] = biological target: RET (Homo sapiens, UniProt P07949); assay: in vitro pharmacology assay, kinase inhibition; assay type: biochemical; conditions: at 5 nM
# [3] = test system: dogs; assay: 13-week oral repeated dose toxicity study; assay type: in vivo
# [4] = test system: rats; assay: 13-week oral repeated dose toxicity study; assay type: in vivo
# [5] = test system: cells expressing several less common FLT3-TKD mutations (I836, other D835 and other mutations); conditions: I836, other D835 and other mutations reported in AML; cited from earlier work
# [6] = biological target: leukocyte tyrosine kinase (LTK) (Homo sapiens, UniProt P29376); assay: in vitro pharmacology assay, kinase inhibition; assay type: biochemical
# [7] = biological target: hERG currents (Homo sapiens, UniProt Q12809); assay: in vitro block of hERG currents; assay type: cell-based; conditions: IC50, blocking hERG currents
# Chain of UniProt Q12809 (Q12809 whole entry): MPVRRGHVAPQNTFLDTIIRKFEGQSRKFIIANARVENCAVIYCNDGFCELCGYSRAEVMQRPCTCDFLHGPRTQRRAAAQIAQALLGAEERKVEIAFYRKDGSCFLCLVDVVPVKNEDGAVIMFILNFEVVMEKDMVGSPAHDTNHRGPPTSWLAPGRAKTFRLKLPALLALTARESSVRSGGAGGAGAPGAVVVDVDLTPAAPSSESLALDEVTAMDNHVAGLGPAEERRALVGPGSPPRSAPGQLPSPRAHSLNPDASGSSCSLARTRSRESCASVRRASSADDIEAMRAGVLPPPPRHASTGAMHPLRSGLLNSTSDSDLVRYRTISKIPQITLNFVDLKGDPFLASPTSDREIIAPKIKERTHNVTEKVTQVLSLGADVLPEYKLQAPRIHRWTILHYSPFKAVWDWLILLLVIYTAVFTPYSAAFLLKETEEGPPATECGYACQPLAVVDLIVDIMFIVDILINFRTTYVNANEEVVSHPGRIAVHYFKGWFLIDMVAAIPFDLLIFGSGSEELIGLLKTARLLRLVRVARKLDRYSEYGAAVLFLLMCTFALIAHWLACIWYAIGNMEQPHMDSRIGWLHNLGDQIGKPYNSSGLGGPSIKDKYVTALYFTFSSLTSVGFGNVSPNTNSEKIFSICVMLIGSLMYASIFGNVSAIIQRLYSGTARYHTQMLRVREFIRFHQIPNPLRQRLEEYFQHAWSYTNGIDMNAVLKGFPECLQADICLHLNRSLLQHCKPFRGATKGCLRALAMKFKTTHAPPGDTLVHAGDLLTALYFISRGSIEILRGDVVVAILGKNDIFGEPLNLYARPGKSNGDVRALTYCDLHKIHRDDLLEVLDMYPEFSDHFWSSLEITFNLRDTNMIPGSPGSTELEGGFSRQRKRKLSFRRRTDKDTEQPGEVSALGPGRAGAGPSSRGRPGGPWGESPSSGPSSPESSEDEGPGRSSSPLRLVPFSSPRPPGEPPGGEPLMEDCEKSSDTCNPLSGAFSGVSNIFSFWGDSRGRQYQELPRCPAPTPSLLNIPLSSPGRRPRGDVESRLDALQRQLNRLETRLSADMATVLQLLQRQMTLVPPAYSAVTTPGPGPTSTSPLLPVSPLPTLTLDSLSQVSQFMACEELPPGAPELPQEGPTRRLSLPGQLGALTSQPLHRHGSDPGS
# [8] = biological target: anaplastic lymphoma kinase (ALK) (Homo sapiens, UniProt Q9UM73); assay: in vitro pharmacology assay, kinase inhibition; assay type: biochemical
# [9] = test system: patients with R/R AML who received 120 mg gilteritinib, regardless of FLT3 status; assay: primary
# [10] = test system: FLT3 receptor signaling in human AML cells expressing FLT3-ITD; assay: inhibition of FLT3 receptor signaling; assay type: cell-based; conditions: 0.1, 1 and 10 nM, dose response
# [11] = biological target: tropomyosin receptor kinase A (TRKA) (Homo sapiens, UniProt P04629); assay: in vitro pharmacology assay, kinase inhibition; assay type: biochemical; conditions: at 5 nM
# [12] = preselected high intensity chemotherapy subgroup, first 30 days
# [13] = preselected low intensity chemotherapy subgroup, first 30 days
smiles,measurement,setting,value
CCc1nc(C(N)=O)c(Nc2ccc(N3CCC(N4CCN(C)CC4)CC3)c(OC)c2)nc1NC1CCOCC1 [gilteritinib],"Abdominal pain, Grade ≥ 3",[1]; [12],0%
same,"Constipation, Any grade",[1]; [12],20%
same,"Constipation, Grade ≥ 3",[1]; [12],0%
same,"Cough, Any grade",[1]; [12],12%
same,"Cough, Grade ≥ 3",[1]; [12],1%
same,"Dizziness, Any grade",[1]; [12],11%
same,"Dizziness, Grade ≥ 3",[1]; [12],0%
same,"Dyspnea, Any grade",[1]; [12],13%
same,"Dyspnea, Grade ≥ 3",[1]; [12],1%
same,"Edema, Any grade",[1]; [12],13%
same,"Edema, Grade ≥ 3",[1]; [12],0%
same,"Fatigue/malaise, Any grade",[1]; [12],24%
same,"Fatigue/malaise, Grade ≥ 3",[1]; [12],1%
same,"Febrile neutropenia, Any grade",[1]; [12],17%
same,"Febrile neutropenia, Grade ≥ 3",[1]; [12],17%
same,"Fever, Any grade",[1]; [12],17%
same,"Fever, Grade ≥ 3",[1]; [12],1%
same,"Headache, Any grade",[1]; [12],11%
same,"Headache, Grade ≥ 3",[1]; [12],0%
same,"Mucositis, Any grade",[1]; [12],12%
same,"Mucositis, Grade ≥ 3",[1]; [12],0%
same,"Myalgia/arthralgia, Any grade",[1]; [12],38%
same,"Myalgia/arthralgia, Grade ≥ 3",[1]; [12],1%
same,"Nausea, Any grade",[1]; [12],15%
same,"Nausea, Grade ≥ 3",[1]; [12],0%
same,"Neuropathy, Any grade",[1]; [12],13%
same,"Neuropathy, Grade ≥ 3",[1]; [12],0%
same,"Rash, Any grade",[1]; [12],15%
same,"Rash, Grade ≥ 3",[1]; [12],1%
same,"Transaminase increased, Any grade",[1]; [12],31%
same,"Transaminase increased, Grade ≥ 3",[1]; [12],10%
same,"Constipation, Any grade",[1]; [13],13%
same,"Constipation, Grade ≥ 3",[1]; [13],1%
same,"Diarrhea, Any grade",[1]; [13],12%
same,"Diarrhea, Grade ≥ 3",[1]; [13],0%
same,"Dyspnea, Any grade",[1]; [13],11%
same,"Dyspnea, Grade ≥ 3",[1]; [13],3%
same,"Edema, Any grade",[1]; [13],20%
same,"Edema, Grade ≥ 3",[1]; [13],1%
same,"Fatigue/malaise, Any grade",[1]; [13],21%
same,"Fatigue/malaise, Grade ≥ 3",[1]; [13],4%
same,"Febrile neutropenia, Any grade",[1]; [13],27%
same,"Febrile neutropenia, Grade ≥ 3",[1]; [13],26%
same,"Fever, Any grade",[1]; [13],11%
same,"Fever, Grade ≥ 3",[1]; [13],0%
same,"Mucositis, Any grade",[1]; [13],20%
same,"Mucositis, Grade ≥ 3",[1]; [13],1%
same,"Myalgia/arthralgia, Any grade",[1]; [13],22%
same,"Myalgia/arthralgia, Grade ≥ 3",[1]; [13],2%
same,"Nausea, Any grade",[1]; [13],10%
same,"Nausea, Grade ≥ 3",[1]; [13],0%
same,"Rash, Any grade",[1]; [13],10%
same,"Rash, Grade ≥ 3",[1]; [13],2%
same,"Transaminase increased, Any grade",[1]; [13],36%
same,"Transaminase increased, Grade ≥ 3",[1]; [13],9%
same,median time to postbaseline QTcF > 480 msec,[1]; range 8 to 168 days,43 days
same,inhibition,[2],greater than half maximal inhibition
same,additional organs with toxicities,[3],"liver in rats and dogs, and male reproductive organs in dogs only"
same,target organs of toxicity,[3]; 13-week oral repeated dose,the eye and the kidney
same,additional organs with toxicities,[4],liver
same,target organs of toxicity,[4]; 13-week oral repeated dose,the eye and the kidney
same,inhibitory effect compared with cells expressing the FLT3-ITD mutation,[5],equivalent inhibitory effect
same,inhibition at 0.001 µM,[6],> 50%
same,IC50,[7],16 µM
same,IC50,[7]; same value in mass units,16 µM
same,inhibition at 0.001 µM,[8],> 50%
same,DS cases fatal,[9]; 1 of 11,9%
same,deaths potentially resulting from direct toxicity,[9]; five deaths,2%
same,pancreatitis,[9]; including one fatal event,4%
same,phosphorylation of ERK compared to control,[10],1%
same,phosphorylation of STAT5 compared to control,[10],0%
same,phosphorylation of protein kinase B (AKT) compared to control,[10],9%
same,inhibition,[11],greater than half maximal inhibition
